Experimental data as given in the RNAGym collection of RNA variant scans (doi:10.7554/elife.90254).
Read counts are not given, so values of variants with three or more changes are uncertain.

B1: OR4K15 (parent)
chain: GUUAACGGUCAUAGGCCAUGGAAACUAGGAGCACCAUUUCGCUGCCAGUGAAGAAAUGAACAAAGAAAAUCUGGGCCAGGCAGGCAUCAAAAGAAAUAGUCUUGCGCUCAACCAGAAAGUCUGUAAUCAUUUUAAGGGUA

Variants of: B1
Assay: self-cleavage, relative activity (ratio to wild type); higher = more cleavage; in vitro, sequencing; the parent is a self-cleaving ribozyme

Variant	self-cleavage
GUUAACGGUCAUAGGCCGUGGAAACUAGGAGCACCAUUUCGCUGCCAGUGAAGAAAUGAACAAAGAAAACCUGGGCCAGGCAGGCAUCAAAAGAAAUAGUCUUGCGCUCAACCAGAAAGUCUGUUAUCGUUUUAAGGGUA [A18G U70C A125U A129G]	0.27
GCUAACGGUCGUAGGCCAUGGAAACUAGGAGCACCAUUUCGCUGCCAGUGAAGAAAUGAACAAAGAAAAUCUGGGCCAGGCAGGCAUCCAAAGAAAUAGUCUUGCGCUCAACCAGAAAGUCUGUAAUCAUUUUAAGGGUG [U2C A11G A89C A140G]	0.6
GUUAGCUGUCAUAGGCCAUGGAAACUAGGAGCACCAAUUCGCUGCCAGUGAAGAAAUGAACAAAGAAAAUCUGGGCCAGGCAGGCAUCAAAAGAAAUAGUCUUGCGCUCAACCUGAAAGUCUGUAAUCAUUUUAAGGGUA [A5G G7U U37A A114U]	0.46
GUUAACGGUCAUAGGCCAUGGACACUAGGAGCACCAUUUCGCUGCCAGUGAAGAAAUGAACAAAGAAAAUCUGGGCCAGGCAGGGAUCAAAAGAAAUAGUCUUGCGCUCAACCAGAAUGUCUGUAAUCAUCUUAAGGGUA [A23C C85G A118U U131C]	0.35
GUUAACGGUCACAGGCCAUGGAAACUAGGAGCGCCAUUUCGCUGCCAGUGAAGAAGUGAACAAGGAAAAUCUGGGCCAGGCAGGCAUCAAAAGAAAUAGUCUUGCGCUCAACCAGAAAGUCUGUAAUCAUUUUAAGGGUA [U12C A33G A56G A64G]	0.72
GUUAACGGUCAUAGGCCGUGGAAACUAGGAGCACCAUUUCGCUGCCAGUGAAGAAAUGAACAAAGAAAAUCUGGGCCUGGCAGGCAUCAAAAGAAAUAGUCUCGCGCUCAACCAGAAAGUCUGUAAUCACUUUAAGGGUA [A18G A78U U103C U130C]	0.06
GUUAACGGUCAUAGGCCAUGGAAACUAGGAGCACCUUUUCGCUGCCAGUGAAGAAAAGAACAAAGAAAAUCUGGGCCAGGCAGGCAUCAAAAGAAGUAGUCUUGCGCUCAUCCAGAAAGUCUGUAAUCAUUUUAAGGGUA [A36U U57A A96G A111U]	0.06
GUUAACGGUCAUAGGCCAUGGAAACUAGGAGCACCAUUUCGCCGCCAGUGAAGAAAUGAACAAAGAAAUUCUGGGCCAGGCAGGCAUCAAAAGAAAUAGUCUUGCGCUCAACCAGAGAGUCUGUAAUCAUUUUAAGGGUA [U43C A69U A117G]	1.82
GUUAGCGGUCAUAGGCCAUGGAAACUAGGAGCACCAUUUCGCUGCCAGUGAAGAAAUGAACAAAGAAAAUCUGGGCCUGGCAGGCAUCAAAAGGAAUAGUCUUGCGCUCAACCAGAAAGUCUGUAAUCAUUUUAAGGGUA [A5G A78U A94G]	0.73
GUUAACGGUCAUAGGCCAUGGAAACUAGGAGCACCAUUUCGCUGCCAGUGAAGAAAUGAACGAAGAAAAUCUGGGCCAGGCUGGCAUCAAAAGGAAUAGUCUUGCGCUCAACCAGAAAGUCUGUAAUCAUUUUAAGGGUA [A62G A82U A94G]	0.15
GUUAACGGUCAUAGGCCAUGGAAACCAGGGGCACCAUUUCGCUGCCAGUGAAGAAAUGAGCAAAGAAAAUCUGGGCCAGGCAGGCAUCAAAAGAAAUAGUCUUGCGCCCAACCAGAAAGUCUGUAAUCAUUCUAAGGGUA [U26C A30G A60G U108C U132C]	0.03
GUUAACGGUCAUAGGCCACGGAAACUAGGAGCACCAUUACGCUGCCGGUGAAGAAAUGGACAAAGAAAAUCUGGGCCAGGCAGGCAUCGAAAGAAAUAGUCUUGCGCUCAACCAGAAAGUCUGUAAUCGUUUUAAGGGUA [U19C U39A A47G A59G A89G A129G]	0.59
GUUAACGGUCAUAGGCCAUGGAAACUAGGAGCACCAUUUCGCUGCCAGGGAAGAAAUGAACAAAGAGAAUCUGGGCCAGGCAGGCAUCAAAAGAAAUAGUCUUGCGCUCAACCAGAAAGUCUGUAAUCAUCUUAAGGGUA [U49G A67G U131C]	1.3
GUUAACGGUCAUAAGCCAUGGUAACUAGGAGCACCAUUUCGCUGCCAGUGAAGAAAUGAACAAAGUAAAUCUGGGCCAGGCAGGCAUCAAAAGAAAUAGUCUUGCGCUCAACCAGAAAGUCUGUAAUCAUUUUAAGGGUA [G14A A22U A66U]	1.45
GUUAACGGUCAUAGGCCACGGAAACUGGGAGCACCAUUUCGCUGCCAGUGAAGAAAUGAACAAAGAAAAUCUGGGCCGGGCAGGCAUCAAAAGAAAUAGUCUUGCGCUCAACCAGAAAGUCUGUAAUCAUUUUAAGGGUA [U19C A27G A78G]	0.22
GUUAACGGUCAUAGGCCAUGGAAACUAGGAGCGCCAUUUCGCUGCCAGUGAAGAAAUGAACAAAGAAAAUCUGGGCCAGGCAGGCAUCAAAAGAAAUAGUCUUGCGCCCAACCAGAAAGUCUGUAACCAUUUUAAGGGUA [A33G U108C U127C]	0.01
GUUAACGGUCAUAGGCCAUGGAAACUAGGGGCACCAUUUCGCUGCCAGUGAAGAAAUGAACAAAGAAAAUCUGGGCCAGGCAGGCAUCAAAAGUAAUAGUCUUGCGCUCAACCAGAAAGUCUGUAAUCGUUUUAAGGGUA [A30G A94U A129G]	0.61
GUUAACGGUCAUAGGCCAUGGAAACUGGGAGCACCAUUUCGCUGCCAGUGAAGAAAUGAACAAAGAAAAUCUGGGCCAGGCAGGCAUCAUAAGAAAUAGUCUUGCGCCCAACCAGAAAGUCUGUAAUCAUUUUAAGGGUA [A27G A90U U108C]	0.01
GUUAACGGUCUUAGGCCAUGGAAACUAGGAGCACCAUUUCGCUGCCAGUGAUGAAAUGAACAAAGAAAAUCUGGGCCAGGCAGGCAUCAAAAGAAAUAGUCUUGCGCUCAACCAGAAGGUCCGUAAUCAUUUUAAGGGUA [A11U A52U A118G U122C]	0.36
GUUAACGGUCAUAGGCCAUGGAAGCUAGGAGCUCCAUUUCGCUGCCAGUGAAGAAACGGACAAAGAAAAUCUGGGCCAGGCAGGCAUCAAAAGAAAUAGUCUUGCGCUCAACCAGAAAGUCUGUAAUCACUUUAAGGGUA [A24G A33U U57C A59G U130C]	0.92
GUUAACGGUCAUAGGCCAUGGAAACUAGGAGCACCAAUUCGCAGCCAGUGAAGAAAUGAUCAAAGAAAAUCUGGGCCUGGCAGGCAUCAAAAGAAAUAGUCUUGCGCUCAACCAGAAAGUCUGUAAUCAUUUUAAGGGUA [U37A U43A A60U A78U]	0.3

Variant	self-cleavage
GUUAACGGUCAUAGGCCAUGGAAACUAGGAGCACCAUUUCGCUGCCAGUGAAGAGAUGAACAAAGAAAAUCUGGGCCAGGCUGGCUUCAAAAGAAAUAGUCUUGCGCUCUACCAGAAAGUCUGUAAUCAUUUUAAGGGUA [A55G A82U A86U A110U]	0.45
GUUGACGGUCAUAGGCCAUGGAAGCUAGGAGCACCAUUUCGCCGCCAGUGGAGAAAUGAACAAAGAAAAUCUGGGCCAGGCAGGCAUCGAAAGAAAUAGUCUUGCGCUCAACCAGAAAGUCUGUAAUCAUUUUAAGGGUA [A4G A24G U43C A51G A89G]	1.38
GCUAACGGUCAUAAGCCAUGGAAACUAGGAGCACCAUUUCGCUGCCAGUGAAGAAAUGAACAAAGAAAACCUGGGCCAGGCAGGCAUCAAAAGAAAUAGUCUUGCGCUCAACCAGAAAGUCUGUAAUCAUUUUAAGGGUA [U2C G14A U70C]	0.79
GUUAACGGUCAUAGGCCAUGGAAACUAGGAGCACCAUUUCGCUGCCAGCGAAGAUAUGAACAAAGAAAAUCUGGGCCAGGCAGGCAUCAAAAGAAAUAGUCUUGCGCGCAACCAGAAUGUCUGUAAUCAUUUUAAGGGUA [U49C A55U U108G A118U]	0.01
GUUAACGGUCAUAGGCCACGGAAACUAGGAGCACCAUUUCGCUGCCAGUGAAGAAAUGAACAAAGAAAAUCUGGGCCAGGCAGGCACCAAAAGAAAUAGUCUUGCGCUCAACCAGAAAGUCUGUAAUCAUUUUAAGGGAA [U19C U87C U139A]	1.1
GUUAACGGUCAUAGGCCAUGGAAACUGGGAGCACCAUUUCGCUGCCAGUGAAGAAAUGAGCAAAGGAAAUCUGGGCCAGGCAGGCAUCAAAAGGGAUAGUCUUGCGCUCAACCAGAAAGUCUGUAAUCAUUUUAAGGGUA [A27G A60G A66G A94G A95G]	0.99
GUUAACGGUCAUAGGCCAUGGGAACUAGGAGCGCCAUUUCGCUGCCAGCGAAGAAAUGAACAAAGAAAAUCUGGGCCUGGUAGGCAUCAAAAGAAAUAGUCUUGCGCUCAACCAGAGAGUCUGUAGUCGUUUUAAGGGUA [A22G A33G U49C A78U C81U A117G A126G A129G]	0.04
GUUAACGGUCAUAGGCCAUGGAAACUAGGAGCACCAUUUCGCUGCCAGUGGAGAAAUGAACAAAGAAAAUCUGGGCCAGGCAGGCAUCAAAAGAAAUAGUCCUGCGCUCAACCAGAAAGUCCGUAAUCAUUUUAAGGGUA [A51G U102C U122C]	1.56
GUUAACGGUCAUAGGCCAUGGAAACUAGGAGCACCAUUUCGCUGCCUGUGAAGAGAUGAACAAAGAAAAUCUGGGCCAGGCAGGCAUCAAAAGGAAUAGUCUUGCGCUCAACCAGAAAGUCUGUAAUCAUUUUAAGGGUA [A47U A55G A94G]	0.55
GUUAACGGACAUAGGCCAUGGGAACUAGGAGCACCAUUUCGCUGCCAGUGAAGAAAUGAACAAAGAAAAUCUGGGCCAGGCUGGCAUCAAAAGAAAUAGUCUUGCGCUCAACCAGAAAGUCUGUAAUCAUUUUAAGGGUA [U9A A22G A82U]	0.25
GUUAAUGGUCAUAGGCCAUGGAAACUAGGAGCACCAUUUCGCUGCCAGUGAAGAAAUGAGCAAUGAGAAUCAGGGCCAGGCAGGCAUCAAAAGAAAUAGUCUUGCGCUCAACCAGAAAGUCUGUAAUCAUUUUAAGGGUA [C6U A60G A64U A67G U72A]	0.3
GUUAACGGUCAUAGGCCUUGGGAACUAGGAGCACCAUUUCGCUGCCAGUGAAGAAAUGAACAAAGAAAAUCUGGGCCAGGCUGGCAUCGAAAGAAGUAGUCUUGCGCUCAACCAGAAAGUCUGUAAUCAUUUUAAGGGUA [A18U A22G A82U A89G A96G]	0.2
GCUAACGGUCAUAGGCCAUGGAAACUAGGAGCACCAUUUCGCUGCCAGUGAAGAAAUGAACAAAGAAAAUCUGGGCCAGGCAGGCAUCAAAGGAAAUAGUCUUGCGCUCAACCAGAAAGUCUGUAAUCACUCUAAGGGUA [U2C A92G U130C U132C]	1.01
GUUAACGGUCAUAGGCCAUGGAACCUAGGAGCACCAUUUCGCAGCCAGUGAAGAAAUGAACAGAGAAAAUCUGGGCCAGGCAGGCAUCAAAAGAAAUAGUCUUGCGCUCAACCAGAAAGUCUGUAAUCAUUUUAAGGGUA [A24C U43A A63G]	2.21
GUUAACGGUCAUAGGCCAUGGAAACUAGGAGCACCAUUUCGCUGCCAGUGAAGAAAUGAACAAAGAAAAUCUGGGCCAGGCAGGCAUCAAAAGGAACAGUCUUGCGCUCAACCAGAGAGUCUGUAAUCAUUUUAAGGGUA [A94G U97C A117G]	1.44
GUUAACGGUCAUAGGCCAUGGAAACUAGGAGCACCAUUUCGCUGCCAGUGAAGAAAUGAACAAAGAAAAUCUGGGCCAGGCGGGCAUCAAAAGAAAUAGUCUUGCGCUCAACCAGAAAGUUUAUAAUCAUUUUAAGGGUA [A82G C121U G123A]	0.64
GUUAACGGUCAUAGGCCAUGGAAUCUAGGAGCACCAUUUCGCUGCCAGAGAAGAAAUGAACAAAGAAAAUCUGGGCCAGGCAGGCAUCAAAAGAAAUAGUCUUGCGCUCAACCAGAAAGUCUGUAAUCACUUUAAGGGUA [A24U U49A U130C]	0.7
GUUAACGGGCAUAGACCAUGGAAACUAGGAGCACCAUUUCGCUGCCAGUGAAGAAAUGAACAAAGAAAAUCUGGGCCAGGCAGGCAUCAAAAGAAAUAGUCUUGCGCUCUACCAGAAAGUCUGUAAUCAUUUUAAGGGUA [U9G G15A A110U]	0.55
GUUAACGGUCAUAGGCCAUGGAAGCUAGGAGCUCCAUUUCGCUGCCAGUGAAGAAAUGAACAAAGAAAAUCUGGGCCAGGCAGGCAUCAAGAGAAAUAGUCCUGCGCUCAACCAGAAAGUCUGUAAUCAUUUUAAGGGUA [A24G A33U A91G U102C]	2.22
GUUAACGGUCAUAGGCCCUGGAAACUAGGAGCACCAUUUCGCUGCCAGUGAAGAAAUGAGCAAAGAAAAUCUGGGCCAGGCAGGCAUCAAAAGAAAUAGUCUUGCGCUCAACCAGAAAAUCUGUAAUCAUUUUAAGGGUA [A18C A60G G119A]	1.21
